Among all 340,000 compounds or so, about 6,900 (2%) were called active. Cut-off read from the data, not from the text of the source: active = inhibition above about 30%; inactive = below that, where a call was filed. This is a selection; strong and weak results do not stand in their true shares. Entries without a call were filed so in the source.

The target of the assay is D(2) dopamine receptor (Homo sapiens) (UniProt P14416). The assay can be described thus: HTS Assay for Allosteric Antagonists of the Human D2 Dopamine Receptor: Primary Screen for Antagonists. Note: 0% is about no effect. Particulars: HEK293 TREx D2 cells, calcium flux, dopamine EC80; at 10 µM; stronger effect = higher value. In short, it runs like this: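 Tetracycline-induced HEK293 T-REx cells expressing D2 force-coupled to calcium signalling were dye-loaded, exposed to compound for 180 s, then challenged with an EC80 of dopamine; calcium flux was followed kinetically for a further 180 s.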
Chain of UniProt P14416 (P14416 whole entry, looked up): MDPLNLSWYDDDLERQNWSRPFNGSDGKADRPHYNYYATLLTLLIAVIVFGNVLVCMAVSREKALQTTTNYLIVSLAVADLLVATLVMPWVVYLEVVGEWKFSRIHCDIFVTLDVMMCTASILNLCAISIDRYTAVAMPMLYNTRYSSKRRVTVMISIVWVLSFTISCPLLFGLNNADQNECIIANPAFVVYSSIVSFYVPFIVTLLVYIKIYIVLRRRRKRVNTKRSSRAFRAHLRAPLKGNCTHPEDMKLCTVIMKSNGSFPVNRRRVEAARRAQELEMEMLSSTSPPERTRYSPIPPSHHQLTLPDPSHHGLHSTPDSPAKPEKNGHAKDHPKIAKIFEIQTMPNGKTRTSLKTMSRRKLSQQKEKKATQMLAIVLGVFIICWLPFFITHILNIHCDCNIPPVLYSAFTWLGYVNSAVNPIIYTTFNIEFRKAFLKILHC
As to `CC(=O)Nc1cccc(NC(=O)CSc2nc(C3CC3)nc3ccccc23)c1`, the inhibition was active: 34.2%.
The result for `O=C(CSc1nnc(CNC(=O)c2ccccc2F)n1-c1ccccc1)Nc1ccccc1F` reads 14.1%; that for `CCCNC(=O)CCn1nc(-c2ccccc2)c2ccccc2c1=O`, -3.78%.
Turning to `Cc1ccc(S(=O)(=O)c2cnc(SC(C)C(=O)Nc3ccccc3)[nH]c2=O)cc1` (stereo unspecified), the inhibition was -21.8%.
For `CCOc1ccc(OCC)c(NC(=O)c2cc(CN3CCOCC3)on2)c1`, the inhibition turned out to be 8.31%.
Turning to `CCOc1ccc(-n2ccn3c(CC(C)CC(=O)O)nnc3c2=O)cc1` (stereo unspecified), the inhibition was -8.83%.
As to `COc1ccc2c(c1)c1c(c(=O)n(-c3ccc(C)cc3)c(=O)n1CC(=O)N1CCCC1)n2C`, the inhibition was -4.82%.
The result for `CCC(CC)C(=O)Nc1ccc(S(=O)(=O)Nc2nccs2)cc1` reads active: 32.1%; that for `CCC12CN3CC(C)(CN(C1)C3c1ccccc1C)C2=O` (stereo unspecified), -3.8%.
For the molecule `Cc1ccccc1-c1nc2cc(NC(=O)c3cccc(OCCC(C)C)c3)ccc2o1`, the inhibition is -3.25%.
The result for `CCCCN(Cc1ccccc1)S(=O)(=O)c1cc(Br)cc2c1N(C(=O)C1CC1)CC2` reads 0.254%; that for `COc1cc(NC(=O)c2ccc(-c3nc(COc4ccccc4)c(C)o3)cc2)cc(OC)c1`, 2.27%; that for `CNc1c(NC(=O)c2cc(OC)cc(OC)c2)c(=O)oc2ccccc12`, 24%.
In the case of `CSc1nc(Nc2cccc(C)c2)c(C#N)c(-c2ccccc2)n1`, the inhibition was found to be 4.03%.
On to `CCOC(=O)c1cnc2ccc(OC)cc2c1NCCc1ccc(OC)c(OC)c1`, for which the inhibition is -12.2%.
Regarding `Cn1c(SCC(=O)N2CCCc3ccccc32)ncc(C(=O)Nc2ccc(F)cc2)c1=O`, the inhibition was -6.89%.
On to `CCCCNC(=O)c1nn(-c2ccc(C)cc2)c(=O)c2c1c1ccccc1n2C`, for which the inhibition is -2.28%.
For the molecule `Cc1cccc(CNC(=O)c2cccc(NC(=O)N3CCSc4ncccc43)c2)c1`, the inhibition was -1.62%.
For `CCN1CCN(c2csc3ccc(C)cc3c2=O)CC1`, the inhibition was -16.3%.
For `COc1ccc(Br)cc1CNC(=O)CSc1cc(=O)n(C)c2ccccc12`, the inhibition is -1.93%.
Turning to `Cc1ccccc1-c1noc(-c2cc3ccccc3oc2=O)n1`, the inhibition worked out at 7.43%.
`Cc1ccc(-n2ncc(C(=O)Nc3ccc4c(c3)OCCO4)c2C2CCN(C(=O)OC(C)(C)C)CC2)cc1`: the inhibition is 15.9%.
On to `Cc1ccc(-c2nc(CS(=O)(=O)CC(=O)N3CCN(c4cccc(C)c4C)CC3)c(C)o2)cc1`, for which the inhibition was -10%.
Take `CCCc1ccc(OC(C)C(=O)Nc2sc3c(c2C(=O)OC)CCCCC3)cc1` (stereo unspecified): the inhibition came out at 4.65%.
As for `CC1CCN(S(=O)(=O)c2ccc3c(c2)oc(=O)n3CC(=O)NC(C)c2ccccc2)CC1` (stereo unspecified), the inhibition is -13%.
For `COc1ccc(OC)c(-c2csc(NC(=O)Cn3[nH]c(=O)c4ccccc4c3=O)n2)c1`, the inhibition is active: 31.9%.
With `CCOC(=O)c1c(C)[nH]c(C)c1S(=O)(=O)N1CCCC(C(=O)Nc2ccccc2OCC)C1` (stereo unspecified), the inhibition is -1.93%.
Turning to `CCc1cccc(CC)c1NC(=O)C(CC)n1nc(C)n2c(cc3cc(C)ccc32)c1=O` (stereo unspecified), the inhibition is 4.68%.
The result for `Cc1ccc2c(c1)C(c1ccccc1)N(C(=O)c1ccccc1F)CC(=O)N2` (stereo unspecified) reads 0.537%.
The result for `CCOC(=O)c1cccc(NC(=O)c2cc3cc4ccc(C)cc4nc3o2)c1` reads 13.7%.
For `CC(=O)N1CCN(C(=S)c2ccc([N+](=O)[O-])cc2)CC1`, the inhibition is active: 48.4%.
As for `CCCn1c(SCc2nc(-c3cc(OC)ccc3OC)no2)nnc1-c1ccc(Cl)cc1`, the inhibition was 13.3%.
For `Cc1ccccc1CNC(=O)C1CCN(c2nnc(-n3c(C)ccc3C)s2)CC1`, the inhibition was 3.28%.
In the case of `COc1ccc2c(c1)c(=O)c(S(=O)(=O)c1ccc(Cl)cc1)cn2C`, the inhibition stood at 10.8%.
`CC(=O)Nc1c(C)nn(-c2ccccc2)c1N1CCC(C(=O)Nc2ccc(F)cc2Cl)CC1`: the inhibition is -18.6%.
`Cc1cccc(NC(=O)N2CCC(CN3CCC(C)CC3)CC2)c1C`: the inhibition was -23.5%.
The result for `CCN(CC)CCOC(=O)c1ccc(NC(=O)Cn2ncc3c([nH]c4ccc(C)cc43)c2=O)cc1` reads -5.12%; that for `COc1ccccc1-c1nc2c3c(-c4ccccc4)c(-c4ccccc4)oc3ncn2n1`, -5.8%.
The result for `COCCn1c(CNC(=O)c2ccc(C)cc2)nc2cccnc21` reads 1.49%; that for `Cc1ccccc1CS(=O)(=O)CC1Nc2ccc(C(=O)NCc3ccc(Cl)cc3)cc2NC1=O` (stereo unspecified), 6.71%.
`CCOc1ccc(-c2nonc2NC(=O)c2oc3c(C)c(C)ccc3c2C)cc1OCC`: the inhibition is -24.7%.
Regarding `O=C(Nc1cccc(C(=O)OCc2cc(=O)n3nc(C4CC4)sc3n2)c1)c1ccccc1`, the inhibition turned out to be 5.99%.
Take `Cc1cc(C)cc(OC(C)C(=O)Nc2nonc2-c2ccc(Br)cc2)c1` (stereo unspecified): the inhibition is 4.86%.
In the case of `Cc1ccccc1NC(=O)CSc1nnc(C)c(=O)[nH]1`, the inhibition was 14.3%.
In the case of `O=C(NCc1ccco1)C1CCN(C(=O)N2CCOc3ccccc32)CC1`, the inhibition was -12.3%.
`CCOc1cccc(CNC(=O)c2ccc(N3CCCC3)c(NC(=O)NCc3ccc(F)cc3)c2)c1`: the inhibition was -10.7%.
The result for `Cc1ccc(Cl)cc1N(C)C(=O)Cn1nc(Cc2cccnc2)c2ccccc2c1=O` reads 6%; that for `Nc1c(-c2nc(-c3cccs3)no2)nnn1-c1ccccc1Cl`, 13.4%.
The result for `Cc1nnc(SCc2ccccc2)c2cc3sccc3n12` reads -5.09%; that for `CCOc1cc(C(=O)N2CC(=O)Nc3ccc(C)cc3C2c2ccccc2)cc(OCC)c1OCC` (stereo unspecified), 4.42%; that for `CCOC(=O)c1ccccc1NC(=O)C1CC(=O)N(C2CCCCC2)C1` (stereo unspecified), active: 41.4%.
For `Cc1cc(Oc2ccc(C#N)cc2)nc(NCc2ccccc2)n1`, the inhibition was active: 42.4%.
The result for `CCc1ccc(CN(Cc2ccco2)C(=O)c2ccc(OC)cc2)cc1` reads 7.91%; that for `COc1ccc(N2CCN(c3oc(/C=C/c4ccc(F)cc4)nc3C#N)CC2)cc1`, 25%.
As for `COCCCNC(=O)CSC1=Nc2ccccc2C2=NC(CCC(=O)NCc3ccccc3OC)C(=O)N12` (stereo unspecified), the inhibition was -11.7%.
As for `O=S(=O)(Nc1cccc(-c2ccc(N3CCCC3)nn2)c1)c1ccccc1C(F)(F)F`, the inhibition is -6.51%.
The result for `COc1ccccc1CNC(=O)c1ccc2c(c1)N(Cc1cccc(C)c1)C(=O)c1ccccc1S2(=O)=O` reads -1.41%.
In the case of `COc1ccc(NC(=O)Cn2nnc3sc4c(c3c2=O)CCC(C)C4)c(OC)c1` (stereo unspecified), the inhibition is -1.61%.
For the molecule `COc1ccc(Cl)cc1NC(=O)c1sc(-n2nc(C)c(Cc3ccccc3)c2C)nc1C`, the inhibition amounted to 2.05%.
On to `Cc1ccc(C)c(Cn2c3ccccc3c3cnn(CC(=O)NCCC4=CCCCC4)c(=O)c32)c1`, for which the inhibition worked out at 15.6%.
As to `CCn1c(=O)c2cc(C(=O)N(CCN(C)C)Cc3ccccc3)sc2c2ccccc21`, the inhibition was -2.25%.
For the molecule `CCOc1ccc(-c2nn(CC(=O)NC3CCCCC3)c3c2cnc2ccc(C)cc23)cc1`, the inhibition came to 2.35%.
In the case of `CCCn1c2ccccc2c2cnn(CC(=O)NCCc3ccc(OCC)cc3)c(=O)c21`, the inhibition was found to be 7.55%.
With `COc1cc(-c2noc(-c3ccc(NCc4ccccc4)c([N+](=O)[O-])c3)n2)cc(OC)c1OC`, the inhibition came out at 19.9%.
Turning to `Cc1ccc(C(=O)NCCc2ccc(Cl)cc2)cc1-n1c(C)nc2cccnc21`, the inhibition was 5.17%.
As to `CCOc1ccc(NC(=O)CCNS(=O)(=O)c2ccc3c(c2)oc(=O)n3C)cc1`, the inhibition stood at 3.93%.
Regarding `Cc1ccc(-c2nnc(Nc3ccc(O)cc3)c3ccccc23)cc1S(=O)(=O)N1CCN(C)CC1`, the inhibition is -1.9%.
The result for `COc1ccc(Nc2cc(C(=O)NCCc3ccc(C)cc3)c3ccccc3n2)c(OC)c1` reads -0.67%.
Turning to `CCOC(=O)N1CCC(NC(=O)c2c(C)nn(-c3ccc(C)cc3)c2-n2cccc2)CC1`, the inhibition is 0.19%.
Turning to `CCOCCCNC(=O)C1CCN(c2nn3cc(-c4ccc(F)cc4)nc3s2)CC1`, the inhibition is 14.2%.
For the molecule `CCCCOc1ccc(C(=O)Nc2nnc3n2CCS3)cc1`, the inhibition was determined as 16.4%.
The result for `Cc1cc(C)cc(NC(=O)CSc2nc3c(oc4ccccc43)c(=O)n2-c2ccccc2F)c1` reads 14.4%; that for `COc1ccc2cc3cc(C(=O)NCc4ccc(C)cc4)oc3nc2c1`, 4.65%.
The result for `COc1ccc(OC)c(CCNC(=O)c2ccc3c(c2)N(Cc2ccc(C)cc2)CCS3)c1` reads -10.8%; that for `COc1ccc(F)cc1S(=O)(=O)NCCc1c(C)[nH]c2c(Cl)cccc12`, -1.91%.
As for `CCc1cccc(OCC(=O)Nc2ccc(S(=O)(=O)Nc3cc(C)nc(C)n3)cc2)c1`, the inhibition is -8.55%.
Turning to `COc1cccc(C(c2sc3nc(-c4ccco4)nn3c2O)N2CCC(O)CC2)c1` (stereo unspecified), the inhibition amounted to 6.2%.
As to `Cc1ccc(CNC(=O)c2ccc3nc(N4CCCCC4)sc3c2)cc1`, the inhibition was -4.42%.
For `O=S(=O)(NCCc1nnc2ccc(SCc3ccc(Cl)cc3Cl)nn12)c1ccccc1`, the inhibition was 0.749%.
For `CCOc1ccc(CCNC(=O)c2ccc3c(Cl)c4c(nc3c2)CCCC4)cc1`, the inhibition is -6.04%.
Turning to `CCOC(=O)c1ccc(NC(=O)c2c(NC(C)=O)sc3c2CCC(C)C3)cc1` (stereo unspecified), the inhibition is 16.3%.
The result for `COCCOC(=O)c1c(C)n(S(=O)(=O)c2ccc(C)cc2)c2ccc(NS(=O)(=O)c3ccc(C)cc3)cc12` reads -9.7%; that for `CCOc1ccccc1NC(=O)c1sc2nc3n(c(=O)c2c1C)CCCCC3`, 22.9%; that for `C1=CC2CC1CC2CN1CCN(c2ccccc2)CC1` (stereo unspecified), active: 77.2%.
The result for `Cc1nn(Cc2ccc(F)cc2)c(C)c1NC(=O)c1cc(CC(C)C)on1` reads 6.01%.
Regarding `Cn1c(=O)c(=O)n(C)c2cc(N3CCOCC3)c(NS(=O)(=O)c3ccc(Cl)cc3)cc21`, the inhibition was determined as 1.78%.
Consider `COC(=O)c1scc(-c2ccc(C)cc2)c1S(=O)(=O)Nc1cc(Cl)ccc1C`, for which the inhibition was found to be 7.63%.
The result for `CCc1ccc(S(=O)(=O)c2cn(CC(=O)Nc3ccc(C)cc3)c3ccccc3c2=O)cc1` reads 4%; that for `CCOC(=O)c1[nH]c2c(c1Cc1ccccc1)C(=O)CC(c1ccc(Cl)cc1)C2` (stereo unspecified), 19.4%; that for `CCN(CC)c1ccc(NS(=O)(=O)c2ccc(-c3cnc(C4CC4)o3)cc2)c(C)c1`, -11.9%.
`CCOc1ccccc1N1CCN(Cc2cn[nH]c2-c2ccc(F)cc2)CC1`: the inhibition was active: 80.9%.
For `CCC1CN(C(=O)N2CCC(C(=O)NCCc3ccc(Cl)cc3)CC2)c2ccccc2O1` (stereo unspecified), the inhibition turned out to be 4.08%.
With `CCCn1c(SCc2nc(-c3ccc(OC)cc3OC)no2)nnc1-c1ccc(Cl)cc1`, the inhibition came out at 0.82%.
Turning to `Cc1cccc(C)c1NC(=O)CSc1nc(-c2ccccc2)nc2c1Cc1c(CO)cnc(C)c1O2`, the inhibition is 26.1%.
For `O=C1NCCN(Cc2ccc(F)cc2)C1=O`, the inhibition is 11.3%.
`Cc1ccc(NC(=O)Cn2cc(C(=O)C3CC3)c3ccccc32)cc1`: the inhibition was -8.39%.
